# The other results are listed elsewhere or left out.
# B1: Banana lectin (Musa acuminata) (protein)
# chain: MNGAIKVGAWGGNGGSAFDMGPAYRIISVKIFSGDVVDGVDVTFTYYGKTETRHYGGSGGTPHEIVLQEGEYLVGMAGEVANYTGAVVLGKLGFSTNKKAYGPFGNTGGTPFSLPIAAGKISGFFGRGGKFLDAIGVYLEPLEHHHHHH
# How the values were obtained:
# Experiment in all cases: glycan array binding signal (z-score within array); higher = stronger binding
# Settings in all cases: glycan notation: IUPAC condensed, linker removed; mutation: H84T
# [1] = biological target: Fuc(a1-2)Gal(b1-4)[Fuc(a1-3)]GlcNAc
# In short: (§1)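 From the Consortium for Functional Glycomics database, 3228 arrays were curated, keeping only those whose protein sequence was available. Binding is given as a within-array Z-score averaged across arrays sharing a protein sequence and across linkers. Negative Z-scores can be read as non-binding.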
# [2] = biological target: Fuc(a1-2)Gal(b1-4)[Fuc(a1-3)]GlcNAc(b1-2)Man(a1-3)[Fuc(a1-2)Gal(b1-4)[Fuc(a1-3)]GlcNAc(b1-2)Man(a1-6)]Man(b1-4)GlcNAc(b1-4)[Fuc(a1-6)]GlcNAc
# In short: as §1
# [3] = biological target: Fuc(a1-2)Gal(b1-4)[Fuc(a1-3)]GlcNAc(b1-2)[Fuc(a1-2)Gal(b1-4)[Fuc(a1-3)]GlcNAc(b1-4)]Man(a1-3)[Fuc(a1-2)Gal(b1-4)[Fuc(a1-3)]GlcNAc(b1-2)Man(a1-6)]Man(b1-4)GlcNAc(b1-4)GlcNAc
# In short: as §1
# [4] = biological target: Fuc(a1-2)Gal(b1-4)[Fuc(a1-3)]GlcNAc(b1-3)Gal(b1-4)[Fuc(a1-3)]GlcNAc
# In short: as §1
# [5] = biological target: Fuc(a1-2)Gal(b1-4)[Fuc(a1-3)]GlcNAc(b1-3)Gal(b1-4)[Fuc(a1-3)]GlcNAc(b1-3)Gal(b1-4)[Fuc(a1-3)]GlcNAc
# In short: as §1
# [6] = biological target: Fuc(a1-2)Gal(b1-4)[Fuc(a1-3)]GlcNAc(b1-3)GalNAc
# In short: as §1
# [7] = biological target: Fuc(a1-2)Gal(b1-4)[Fuc(a1-3)]GlcNAc(b1-3)[Neu5Ac(a2-6)Gal(b1-4)GlcNAc(b1-6)]Gal(b1-4)Glc
# In short: as §1
# [8] = biological target: Fuc(a1-2)Gal3S(b1-4)GlcNAc
# In short: as §1
# [9] = biological target: Fuc(a1-2)Gal6S(b1-3)GlcNAc
# In short: as §1
# [10] = biological target: Fuc(a1-2)Gal6S(b1-3)GlcNAc6S
# In short: as §1
# Fuc(a1-2)Gal6S(b1-4)Glc = biological target: Fuc(a1-2)Gal6S(b1-4)Glc
# In short: as §1
# [11] = biological target: Fuc(a1-2)Gal6S(b1-4)Glc6S
# In short: as §1
# Fuc(a1-2)[Gal(a1-3)]Gal = biological target: Fuc(a1-2)[Gal(a1-3)]Gal
# In short: as §1
# [12] = biological target: Fuc(a1-2)[Gal(a1-3)]Gal(b1-3)GalNAc
# In short: as §1
# [13] = biological target: Fuc(a1-2)[Gal(a1-3)]Gal(b1-3)GalNAc(b1-3)Gal(a1-4)Gal(b1-4)Glc
# In short: as §1
# [14] = biological target: Fuc(a1-2)[Gal(a1-3)]Gal(b1-3)GlcNAc
# In short: as §1
# [15] = biological target: Fuc(a1-2)[Gal(a1-3)]Gal(b1-3)GlcNAc(b1-2)Man(a1-3)[Fuc(a1-2)[Gal(a1-3)]Gal(b1-3)GlcNAc(b1-2)Man(a1-6)]Man(b1-4)GlcNAc(b1-4)GlcNAc
# In short: as §1
# [16] = biological target: Fuc(a1-2)[Gal(a1-3)]Gal(b1-3)GlcNAc(b1-2)Man(a1-3)[Fuc(a1-2)[Gal(a1-3)]Gal(b1-3)GlcNAc(b1-2)Man(a1-6)]Man(b1-4)GlcNAc(b1-4)[Fuc(a1-6)]GlcNAc
# In short: as §1
# [17] = biological target: Fuc(a1-2)[Gal(a1-3)]Gal(b1-3)GlcNAc(b1-3)GalNAc
# In short: as §1
# [18] = biological target: Fuc(a1-2)[Gal(a1-3)]Gal(b1-3)GlcNAc(b1-6)GalNAc
# In short: as §1
# [19] = biological target: Fuc(a1-2)[Gal(a1-3)]Gal(b1-4)Glc
# In short: as §1
# [20] = biological target: Fuc(a1-2)[Gal(a1-3)]Gal(b1-4)GlcNAc
# In short: as §1
# [21] = biological target: Fuc(a1-2)[Gal(a1-3)]Gal(b1-4)GlcNAc(b1-2)Man
# In short: as §1
# [22] = biological target: Fuc(a1-2)[Gal(a1-3)]Gal(b1-4)GlcNAc(b1-2)Man(a1-3)[Fuc(a1-2)[Gal(a1-3)]Gal(b1-4)GlcNAc(b1-2)Man(a1-6)]Man(b1-4)GlcNAc(b1-4)GlcNAc
# In short: as §1
# [23] = biological target: Fuc(a1-2)[Gal(a1-3)]Gal(b1-4)GlcNAc(b1-2)Man(a1-3)[Fuc(a1-2)[Gal(a1-3)]Gal(b1-4)GlcNAc(b1-2)Man(a1-6)]Man(b1-4)GlcNAc(b1-4)[Fuc(a1-6)]GlcNAc
# In short: as §1
# [24] = biological target: Fuc(a1-2)[Gal(a1-3)]Gal(b1-4)GlcNAc(b1-3)GalNAc
# In short: as §1
# [25] = biological target: Fuc(a1-2)[Gal(a1-3)]Gal(b1-4)GlcNAc(b1-3)[Fuc(a1-2)[Gal(a1-3)]Gal(b1-4)GlcNAc(b1-6)]GalNAc
# In short: as §1
# [26] = biological target: Fuc(a1-2)[Gal(a1-3)]Gal(b1-4)GlcNAc(b1-6)GalNAc
# In short: as §1
# [27] = biological target: Fuc(a1-2)[Gal(a1-3)]Gal(b1-4)[Fuc(a1-3)]Glc
# In short: as §1
# [28] = biological target: Fuc(a1-2)[Gal(a1-3)]Gal(b1-4)[Fuc(a1-3)]GlcNAc
# In short: as §1
# [29] = biological target: Fuc(a1-2)[Gal(a1-3)]Gal(b1-4)[Fuc(a1-3)]GlcNAc(b1-3)GalNAc
# In short: as §1
# [30] = biological target: Fuc(a1-2)[Gal(a1-4)]Gal(b1-4)GlcNAc
# In short: as §1
# [31] = biological target: Fuc(a1-2)[GalNAc(a1-3)]Gal
# In short: as §1
# [32] = biological target: Fuc(a1-2)[GalNAc(a1-3)]Gal(b1-3)GalNAc(a1-3)[Fuc(a1-2)]Gal(b1-4)GlcNAc
# In short: as §1
# [33] = biological target: Fuc(a1-2)[GalNAc(a1-3)]Gal(b1-3)GalNAc(b1-3)Gal(a1-4)Gal(b1-4)Glc
# In short: as §1
# [34] = biological target: Fuc(a1-2)[GalNAc(a1-3)]Gal(b1-3)GlcNAc
# In short: as §1
# [35] = biological target: Fuc(a1-2)[GalNAc(a1-3)]Gal(b1-3)GlcNAc(b1-2)Man(a1-3)[Fuc(a1-2)[GalNAc(a1-3)]Gal(b1-3)GlcNAc(b1-2)Man(a1-6)]Man(b1-4)GlcNAc(b1-4)GlcNAc
# In short: as §1
# [36] = biological target: Fuc(a1-2)[GalNAc(a1-3)]Gal(b1-3)GlcNAc(b1-2)Man(a1-3)[Fuc(a1-2)[GalNAc(a1-3)]Gal(b1-3)GlcNAc(b1-2)Man(a1-6)]Man(b1-4)GlcNAc(b1-4)[Fuc(a1-6)]GlcNAc
# In short: as §1
binder,measurement,setting,value
B1,glycan array binding signal (z-score),[1],-0.187
same,glycan array binding signal (z-score),[2],-0.171
same,glycan array binding signal (z-score),[3],-0.137
same,glycan array binding signal (z-score),[4],-0.146
same,glycan array binding signal (z-score),[5],-0.111
same,glycan array binding signal (z-score),[6],-0.141
same,glycan array binding signal (z-score),[7],-0.193
same,glycan array binding signal (z-score),[8],-0.115
same,glycan array binding signal (z-score),[9],-0.182
same,glycan array binding signal (z-score),[10],-0.179
same,glycan array binding signal (z-score),Fuc(a1-2)Gal6S(b1-4)Glc,-0.162
same,glycan array binding signal (z-score),[11],-0.162
same,glycan array binding signal (z-score),Fuc(a1-2)[Gal(a1-3)]Gal,-0.183
same,glycan array binding signal (z-score),[12],-0.167
same,glycan array binding signal (z-score),[13],-0.178
same,glycan array binding signal (z-score),[14],-0.17
same,glycan array binding signal (z-score),[15],0.023
same,glycan array binding signal (z-score),[16],0.765
same,glycan array binding signal (z-score),[17],-0.172
same,glycan array binding signal (z-score),[18],-0.142
same,glycan array binding signal (z-score),[19],-0.158
same,glycan array binding signal (z-score),[20],-0.178
same,glycan array binding signal (z-score),[21],-0.212
same,glycan array binding signal (z-score),[22],-0.124
same,glycan array binding signal (z-score),[23],0.592
same,glycan array binding signal (z-score),[24],-0.149
same,glycan array binding signal (z-score),[25],-0.144
same,glycan array binding signal (z-score),[26],-0.178
same,glycan array binding signal (z-score),[27],-0.155
same,glycan array binding signal (z-score),[28],-0.159
same,glycan array binding signal (z-score),[29],-0.193
same,glycan array binding signal (z-score),[30],-0.197
same,glycan array binding signal (z-score),[31],-0.169
same,glycan array binding signal (z-score),[32],-0.161
same,glycan array binding signal (z-score),[33],-0.165
same,glycan array binding signal (z-score),[34],-0.162
same,glycan array binding signal (z-score),[35],-0.141
same,glycan array binding signal (z-score),[36],0.369

# Reference: the supplement of paper PMC8728848
